# Screen size: about 310,000 compounds; about 14,000 (4.5%) showed an effect of 50% or more. The effect is printed as a negative number. Some of the results follow.
# Target: human ether-à-go-go-related gene (hERG) potassium channel (human, UniProt Q12809)
# Assay: primary screen, population patch clamp on CHO cells stably expressing hERG
# 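Further: peak tail current of the secondary pulse compared with the same well before compound.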
# human ether-à-go-go-related gene (hERG) potassium channel, sequence (Q12809 whole entry, looked up): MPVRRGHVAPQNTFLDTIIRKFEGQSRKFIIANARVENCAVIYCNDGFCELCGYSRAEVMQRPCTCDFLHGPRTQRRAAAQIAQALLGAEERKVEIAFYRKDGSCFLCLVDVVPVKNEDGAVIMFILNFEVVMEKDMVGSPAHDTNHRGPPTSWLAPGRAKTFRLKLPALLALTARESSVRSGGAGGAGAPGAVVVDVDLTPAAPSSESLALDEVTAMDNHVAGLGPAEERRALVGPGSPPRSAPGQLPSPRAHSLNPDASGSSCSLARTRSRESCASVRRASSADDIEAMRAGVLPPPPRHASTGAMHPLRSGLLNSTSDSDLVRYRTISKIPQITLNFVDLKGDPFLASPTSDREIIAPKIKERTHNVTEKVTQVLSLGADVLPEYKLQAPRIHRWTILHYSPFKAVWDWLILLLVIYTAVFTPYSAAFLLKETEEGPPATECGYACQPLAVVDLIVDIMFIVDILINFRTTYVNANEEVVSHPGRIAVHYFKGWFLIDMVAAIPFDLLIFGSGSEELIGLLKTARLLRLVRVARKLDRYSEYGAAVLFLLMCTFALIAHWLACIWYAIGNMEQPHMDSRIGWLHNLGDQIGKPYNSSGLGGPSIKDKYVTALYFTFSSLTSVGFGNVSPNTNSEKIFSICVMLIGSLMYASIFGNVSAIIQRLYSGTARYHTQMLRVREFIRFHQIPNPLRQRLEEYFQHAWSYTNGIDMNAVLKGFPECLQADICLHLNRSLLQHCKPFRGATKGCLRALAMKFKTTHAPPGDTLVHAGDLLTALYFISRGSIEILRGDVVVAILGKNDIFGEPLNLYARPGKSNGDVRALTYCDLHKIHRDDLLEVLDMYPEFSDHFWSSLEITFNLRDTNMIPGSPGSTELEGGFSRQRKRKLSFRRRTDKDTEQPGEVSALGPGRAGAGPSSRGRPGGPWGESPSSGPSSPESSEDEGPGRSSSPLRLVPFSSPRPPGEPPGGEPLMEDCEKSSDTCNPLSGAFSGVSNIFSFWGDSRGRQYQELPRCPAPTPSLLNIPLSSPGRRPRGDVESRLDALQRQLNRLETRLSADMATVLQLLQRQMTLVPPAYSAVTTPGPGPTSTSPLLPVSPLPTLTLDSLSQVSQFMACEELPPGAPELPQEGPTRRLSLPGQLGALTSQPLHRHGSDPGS
row,SMILES,"hERG current change (%, negative = inhibition) at 10uM"
1,Cc1cc(C)nc(NC(=O)c2cccc(Br)c2)n1,17.6%
2,CCOc1ccc(CN2CCNC(=O)C2CC(=O)NCc2cc(C)n(C)n2)cc1 (centres unmarked),-1.95%
3,CCOC(=O)[C@H]1[C@H]2COc3ccc(C)cc3[C@@H]2N2C(=O)[C@@H](C)NC(=O)[C@@]12C,6.22%
4,CC(=O)c1c(C)[nH]c(C(=O)N2CCN(S(=O)(=O)c3ccc(F)c(F)c3)CC2)c1C,-1.32%
5,CCOc1cc(/C=N/NS(=O)(=O)c2ccc(OC)cc2)ccc1OCCN1CCOCC1,-53.8%
6,COc1cccc(CCNS(=O)(=O)CCNC(=O)c2cccc(OC)c2)c1,-26.2%
7,CCOc1c(Br)cc(C2NS(=O)(=O)N=C3CCCCCN32)cc1OC (centres unmarked),22.6%
8,CC(C)CC(=O)C(=O)[O-].[Na+],-0.864%
9,CS(=O)(=O)Nc1nnc(SCC(=O)N(c2ccccc2)c2ccccc2)s1,19%
10,COCC(=O)Nc1nc2ccccc2s1,-6.01%
11,OCC1(CO)COC(/C=C/c2ccccc2)=N1,-3.43%
12,COc1cc(/C=C2/CC/C(=C/c3ccc(O)c(OC)c3)C2=O)ccc1O,-2.88%
13,COc1ccnc(-n2cccc2C=O)c1C#N,8.09%
14,COc1ccc(-c2nc3ccccn3c2C=O)cc1,9.23%
15,COc1ccc(C)cc1N(CC(=O)NC1CCCC1)C(=O)CCC(=O)Nc1cc(C)on1,5.61%
16,O=C1c2ccccc2C(=O)N1CCCc1nc(-c2cccnc2)no1,-9.56%
17,Cc1ccc(C(=O)NNC(=O)c2cccc(C)c2)cc1,13.6%
18,Cc1ccc(NC(=O)CS(=O)CC(=O)Nc2cccc(C)c2C)cc1F (centres unmarked),14.5%
19,O=C(Nc1ccc(N2CCOCC2)c(Cl)c1)c1ccccc1Cl,15.2%
20,O=C(/C=C/Nc1ccc(Br)cn1)c1cccc(OC(F)F)c1,4.45%
21,CCCc1cc(=O)oc2cc(C)cc(OC(=O)c3ccco3)c12,7.89%
22,O=C(NCc1ccco1)C1(S(=O)(=O)c2ccccc2)CC=CC1,15.8%

row,SMILES,"hERG current change (%, negative = inhibition) at 10uM"
1,CC(C)C(NC(=O)c1ccccc1F)C(=O)OCC(=O)c1ccc(F)cc1 (centres unmarked),-9.49%
2,CC(=O)N1CCC(N(CCCOC(C)C)C(=O)Nc2ccc(Cl)cc2)CC1,-33%
3,COc1ccccc1NC(=O)CSc1nnc(Cn2c(=O)sc3ccccc32)n1C,-44%
4,COc1ccc(C2=C(C#N)C(=O)OC2)cc1,-3.7%
5,CCCCP(=O)(CCCC)CCP(=O)(c1ccccc1)c1ccccc1,-3.22%
6,COC(=O)c1ccccc1S(=O)(=O)Nc1ccc2cn[nH]c2c1,6.26%
7,CCOC(=O)c1ccc(NC(=S)N2CCSC2c2ccc(Cl)cc2)cc1 (centres unmarked),9.47%
8,CN(C(=O)Nc1cnccc1C(F)(F)F)C1CCCCC1,19.6%
9,CCC1=Nc2cc(C(=O)NCCN3CCOCC3)ccc2Sc2ccc(C)cc21,-82.3%
10,Cc1ccc(S(=O)(=O)N2CCC(C(=O)N[C@H](C(=O)NC3CCS(=O)(=O)C3)C(C)C)CC2)cc1 (some centres unmarked),13.5%
11,COC(=O)c1cc(=O)n2c(-c3ccc(OC)cc3)csc2n1,1.63%
12,O=C(O)C1CCCCC1C(=O)NCCCN1CCCC1=O (centres unmarked),24.7%
13,CCCNC1=CC(=O)CC(C)(C)C1,2.61%
14,COc1cc(OC)c2ccc(=O)oc2c1C(CCN1CCN(c2ccccc2)CC1)c1ccc(N(C)C)cc1 (centres unmarked),-11.7%
15,Cc1c(C(=O)NCc2cccnc2)oc2ccc(S(=O)(=O)N3CCCCC3)cc12,-33.4%
16,COc1ccc(-c2csc(NC(=O)COC(=O)c3ccc(Br)o3)n2)cc1,21.5%
17,COC(=O)CCCC1=CC2=C(c3ccccc3)C(=O)C(C)(OC(=O)C3CCCC3)C(=O)C2=CN1C1CC1 (centres unmarked),-10.8%
18,Cc1ccc(S(=O)(=O)NC(CC(=O)O)c2ccc(F)cc2)cc1 (centres unmarked),10.1%
19,Cc1cc(C)nc(N(C#N)CC(=O)c2ccccc2)n1,-42.9%
20,O=c1c2ccccc2[nH]c2ccc(O)cc12,-2.76%
21,COc1ccc2oc(=O)c(C(=O)C[n+]3cccc(C)c3)cc2c1.[Br-],5.73%
22,Cc1ccsc1C(=O)OCC(=O)Nc1cccc(S(=O)(=O)NC2=NCCCCC2)c1,-5.92%

# — article PMC4336329 (PLoS ONE, 2015)
